Test results published in ChEMBL document CHEMBL4888484, “Replenishing the malaria drug discovery pipeline: Screening and hit evaluation of the MMV Hit Generation Library 1 (HGL1) against asexual blood stage Plasmodium falciparum ,using a nano luciferase reporter read-out” (2022).
Hit rate of the full screen: of about 150,000 compounds, about 540 (0.36%) showed an effect of 50% or more. This is one part of the list.

The compounds below were run on Plasmodium falciparum (assay: Primary screen in NF54 nanoGlo assay, in single point, at 2uM, 72h; a lower Z score goes with more inhibition). Conditions: timepoint 72 hour.
Assay type: functional, Erythrocyte

Compound	% Inhibition	Z score
CC(C)n1cc(-c2c(C(=O)Nc3ccc4c(c3)OC(F)(F)O4)oc3ccccc23)cc(C#N)c1=O	4%	-0.53
CC[C@@H](CC(F)(F)F)NC(=O)c1c(C)n[nH]c1C(C)C	-4%	0.53
Cc1cccc(-n2cc(CN3C[C@@H](CN4CCCCCC4)[C@@H](CO)C3)cn2)c1	-9%	0.97
COc1nccc(C(=O)N[C@H]2CCc3cc(O)ccc3C2)n1	3%	-0.47
CCCS(=O)(=O)N1CCC[C@H]1c1noc(COCCOC)n1	-11%	1.5
CCS(=O)(=O)Oc1ccccc1CN(C(=O)C(C)C)C(C)C	2%	-0.22
COc1ccc(NC(=O)N(Cc2ccncc2)C2CC2)cn1	-21%	1.79
CC(C)(C)n1ncc2c1NC(=O)C[C@@H]2c1ccc2c(c1)OCO2	-4%	0.51
Cc1nc(CC2CC2)sc1C(=O)N1CCCc2cc(F)ccc21	-2%	0.25
CC(C)Cc1nc2cc(NS(=O)(=O)N(C)C)cc(C(=O)NCC(C)(C)N3CCOCC3)c2n1C	0%	-0.05
CC(C)CCNC(N)=NC[C@H](O)c1ccccc1F	1%	-0.13
CCC(NC(=O)Cn1ccnc1C)[C@H]1C[C@H](O)C1 (stereo partly drawn)	-6%	0.64
COC(=O)[C@@H]1CS(=O)(=O)CCN1C(=O)OC(C)(C)C	-7%	0.94
O=C(NCCc1nnc2ccccn12)c1ccc(C#Cc2ccccc2)cc1	-19%	3.79
Cc1ccc(C)c(Cn2c(C)c(CNC3CCCCCC3)c(C(=O)O)c2C)c1	-6%	0.76
CC(NC(=O)NC1CCCOC1)c1ccc(OC(F)(F)F)cc1 (stereo not drawn)	-2%	0.37
CNC(N)=NCC(C)(C)c1ccc(Cl)cc1	5%	-0.55
COc1cnc(NC(=O)CC2(C)CCCCC2)s1	-12%	1.34
Cc1nc(C)n(C[C@H](O)c2ccccc2Cl)n1	3%	-0.49
Cc1cnc(-n2ncc(C(=O)N3CCN(CCO)CC3)c2C2CC2)nc1-c1cccs1	-7%	1.15
Cc1nn(-c2ccccc2)c(C)c1-c1ccnc(N(C)Cc2ccccn2)n1	-9%	1.62
Cc1ccc([C@H](C)NC(=O)C2CCN(c3cc(-c4cccc(C)c4)ncn3)CC2)cc1	-3%	0.38
Cc1ccccc1C(=O)N1[C@H](C(=O)N2CCCC2)COC12CCN(C(=O)c1ccc(F)cc1)CC2	-3%	0.44
OCCN(Cc1cnn(Cc2ccccc2)c1)c1ncc(F)cn1	4%	-0.4
C[C@@H](CNC(=O)C1(C)CCOCC1)Oc1ccc(Cl)cc1	-8%	0.88
Cc1ccc(N2CCCN(Cc3c(F)cccc3F)C2=O)c(NS(=O)(=O)c2cccc(Cl)c2)c1	1%	-0.09
FC(F)(F)Cn1ncnc1Cc1n[nH]c2ccccc12	-2%	0.42

Compound	% Inhibition	Z score
CC1CC1c1nnc(C2(c3ccc(Cl)cc3)CCOCC2)o1 (stereo not drawn)	-9%	1.36
COc1ncccc1C(=O)Nc1cc(C(N)=O)ccc1NCc1ccccc1	-8%	0.79
Cn1nncc1S(=O)(=O)NC(=O)C(C)(C)Oc1ccc(C(F)(F)F)cc1	-1%	0.22
Cc1cccnc1CN(Cc1ccccc1)C(=O)CCC1CCN(C)CC1	2%	-0.31
CCCc1occc1C(=O)N1CCCC2(CCCCO2)C1C#N (stereo not drawn)	3%	-0.25
COc1ccc2[nH]cc(CCNC(=O)c3cc4n(n3)CCCN(Cc3ccc(F)cc3)C4=O)c2c1	-13%	1.23
Cc1nn(C)c(C)c1S(=O)(=O)N1CCC(N2CCN(c3ncc(C(F)(F)F)cc3Cl)CC2)CC1	-11%	1.47
COc1ccc(-c2ccc(-n3cccn3)cc2)c(C(=O)O)c1	0%	-0.05
COc1ccccc1OC1(C(=O)O)CCN(Cc2cc(C(C)(C)C)[nH]n2)CC1	-14%	1.27
Cc1cc(-c2ccc(S(=O)(=O)N3CCOCC3)s2)n[nH]1	31%	-0.66
COc1cc(NCCn2nnc3ccccc32)ncn1	-12%	2.29
Cc1cc(CCNC(=O)NC(C)(C)C)on1	-1%	0.08
CCC1OCCCC1C(=O)Nc1nc(C)nn1-c1ccccc1 (stereo not drawn)	-7%	0.89
Cc1nn(C(F)F)cc1-c1cccc(C(=O)NC[C@@H](CO)Cc2ccco2)c1	1%	-0.11
CCc1c(C)sc(NC(=O)c2scnc2C)c1C#N	-20%	2.47
CCOCCCN1CCC(NC(=O)c2cccc(N(C)C)c2)C(C)C1 (stereo not drawn)	-15%	1.36
COc1ccc([C@H]2C[C@@H]2C(=O)N2CCC[C@H](C(=O)NC(C)C)C2)cc1	0%	-0.02
Cc1nn(C)c(Cl)c1CN(C)C[C@H]1CC(=O)N(C2CCCC2)C1	0%	-0.01
Cc1cc(O[C@H]2CCN(S(=O)(=O)Cc3ccccc3)C2)nc(C)n1	-2%	0.34
FC(F)COCCOc1cccn2ccnc12	-3%	0.36
CC(C)c1cc(CN(C)CCCc2cccnc2)no1	-16%	3.08
CN(CCNc1nc(-c2ccccc2)no1)Cc1ccccc1	-26%	2.27
COCCc1nsc(N2CCN(c3ccc(N)nc3)CC2)n1	-2%	0.32
O=S(=O)(Nc1nnc2ccccn12)c1cc(Br)ccc1Cl	-9%	1.45
COc1cc(CNCCN2CCCC[C@@H]2CO)ccc1F	1%	-0.1
O=C(c1cccc2nccnc12)N1CCC[C@@]2(CCCO2)CC1	-8%	1.37
CCN(CCNC(=O)Cc1ccc2nc(NC(C)=O)sc2c1)c1ccccc1	-3%	0.25
